Results taken from patent publication US12325690B2, “Compounds for the reducing lipotoxic damage” (Mayo Foundation for Medical Education and Research, priority 2017, dated 2025).
Values belong to the compound of their own block, whether it stands above or below them.

Tests used:
[1] = system: Mouse pancreatic acinar cells; assay: Toxicity study in pancreatic acinar cells (ATP levels, LDH leakage); format: cell-based; conditions: 4 hours, 20-200 micromolar range
Description: Toxicity studies of the relevant compounds were also performed using by diluting the original ethanol stock 200 mM into the incubation medium for acinar cells (HEPES buffer, pH 7.4, as described by Navina et al) 600 micromolar stock solutions of the compounds in 0.3% ethanol in PBS. These were added to acinar cells at ⅓ dilutions starting at 200 micromolar. Mouse pancreatic acinar ATP levels and LDH leakage were measured over 4 hours and compared to control. Any number positive over control indicates % injury greater than control acini.

[2] = target: T1, recombinant human pancreatic lipase related protein 2 (hPLRP2) (Homo sapiens, UniProt P54317); assay: FFA generation by recombinant hPLRP2; format: biochemical; conditions: % FFA generation; read-out: IC50 against hPLRP2
T1 sequence (P54317 18-469): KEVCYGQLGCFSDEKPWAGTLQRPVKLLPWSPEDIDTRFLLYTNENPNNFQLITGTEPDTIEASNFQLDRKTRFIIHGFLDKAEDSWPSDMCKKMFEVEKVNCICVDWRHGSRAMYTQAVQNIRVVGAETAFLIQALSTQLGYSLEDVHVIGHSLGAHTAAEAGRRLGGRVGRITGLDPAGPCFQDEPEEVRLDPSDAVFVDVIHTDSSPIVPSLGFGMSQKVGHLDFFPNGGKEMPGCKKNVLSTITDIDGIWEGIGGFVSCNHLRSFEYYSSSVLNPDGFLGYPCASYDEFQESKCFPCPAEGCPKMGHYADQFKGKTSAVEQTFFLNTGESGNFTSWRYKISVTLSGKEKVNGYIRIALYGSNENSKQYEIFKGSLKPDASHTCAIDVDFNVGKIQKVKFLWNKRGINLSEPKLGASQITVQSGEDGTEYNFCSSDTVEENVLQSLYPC
Description: (§1) The efficacy of a selection of the prepared analogs was explored to determine their ability to inhibit free fatty acid (FFA) generation from recombinant human lipases while retaining stability. To test these features, the analogs were dissolved in ethanol (200 mM stock) and further diluted to a 600 micromolar (0.3% ethanol) working stock in PBS. The agents were incubated with the recombinant enzymes in serial ⅓ dilutions spanning a range of 200 to 0.3 micromolar for 30 minutes, and then added to the substrate 1 mM glyceryl trilinoleate (GTL) in PBS, pH 7.4 along with cofactor colipase (CLPS; 0.5 mcg/ml).
(§2) These lipases form 15-30% of pancreatic lipases.

[3] = target: T2, carboxyester lipase (hCEL) (Homo sapiens, UniProt P19835); assay: FFA generation by recombinant hCEL; format: biochemical; conditions: % FFA generation; read-out: IC50 against hCEL
T2 sequence (P19835 21-753): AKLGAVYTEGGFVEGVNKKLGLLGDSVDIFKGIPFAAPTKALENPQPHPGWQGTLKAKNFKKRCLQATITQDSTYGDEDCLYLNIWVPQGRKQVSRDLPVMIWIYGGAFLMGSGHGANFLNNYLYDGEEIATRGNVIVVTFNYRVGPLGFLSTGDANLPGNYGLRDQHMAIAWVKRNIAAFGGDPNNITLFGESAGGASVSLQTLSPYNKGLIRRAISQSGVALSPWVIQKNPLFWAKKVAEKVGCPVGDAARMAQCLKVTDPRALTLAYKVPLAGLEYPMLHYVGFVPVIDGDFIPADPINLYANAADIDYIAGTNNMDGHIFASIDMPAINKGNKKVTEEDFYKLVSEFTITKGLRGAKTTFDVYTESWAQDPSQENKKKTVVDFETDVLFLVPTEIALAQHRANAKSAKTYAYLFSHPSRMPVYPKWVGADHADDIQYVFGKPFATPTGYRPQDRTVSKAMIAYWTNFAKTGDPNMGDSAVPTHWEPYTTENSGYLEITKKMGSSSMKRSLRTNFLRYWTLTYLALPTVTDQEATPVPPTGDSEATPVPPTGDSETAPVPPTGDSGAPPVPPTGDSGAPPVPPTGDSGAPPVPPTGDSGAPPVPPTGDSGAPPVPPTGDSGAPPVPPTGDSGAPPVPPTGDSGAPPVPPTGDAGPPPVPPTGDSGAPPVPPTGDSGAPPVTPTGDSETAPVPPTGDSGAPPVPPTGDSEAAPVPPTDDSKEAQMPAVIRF
Description: as §1, §2

[4] = system: acinar cells incubated with GTL; assay: GTL induced acinar injury (LDH leakage); format: cell-based; conditions: 10 micromolar
From the text: as §2

[5] = system: ob/ob mice with severe pancreatitis; assay: Caerulein-induced severe pancreatitis in obese ob/ob mice
[6] = 20 mg/kg single intraperitoneal dose, ob/ob mice

SMILES: CCCCCCCCCCC[C@@H](C[C@@H]1OC(=O)[C@H]1CCCCCC)OC(=O)[C@H](CNC=O)NC=O [Compound 733]
LDH leakage [1]: inducing LDH leakage
acinar ATP levels [1]: drop in ATP
toxicity to acinar cells [1]: toxic to acinar cells

IC50 [2]: ≤ 2000 nM
IC50 [3]: ≤ 2000 nM
SMILES: CCCCCCCCCCC[C@@H](C[C@@H]1OC(=O)[C@H]1CCCCCC)OC(=O)[C@H](CCCNC(=N)N)NC=O [Compound 740]
efficacy in reducing GTL induced acinar injury compared with orlistat ([4]; LDH leakage): more efficacious
toxicity compared with orlistat ([4]; acinar cells): less toxic

IC50 [2]: ≤ 2000 nM
IC50 [3]: ≤ 2000 nM
SMILES: CCCCCCCCCCC[C@@H](C[C@@H]1OC(=O)[C@H]1CCCCCC)OC(=O)C(CCCNC=O)NC=O (stereo partly shown) [Compound 734]

SMILES: CCCCCCCCCCC[C@@H](C[C@@H]1OC(=O)[C@H]1CCCCCC)OC(=O)[C@H](CC(=O)O)NC=O [Compound 743]
LDH leakage [1]: inducing LDH leakage

SMILES: CCCCCCCCCCC[C@@H](C[C@@H]1OC(=O)[C@H]1CCCCCC)OC(=O)[C@H](CC(C)C)NC=O [orlistat]
5 day survival [5, 6]: 2/7
PD (pulse distention, shock) [5, 6]: 171±21 μm
UFAs [5, 6]: 5.4 ± 0.9 mM
leucopenia (mice affected) [5, 6]: 4/7
mortality [5, 6]: 5/7
serum calcium [5, 6]: 4.2 ± 0.3 mg/dL
temperature (hypothermia) [5, 6]: 86±0.9 ° F.
BUN (peak) ([5]; 20 mg/kg single intraperitoneal dose, ob/ob mice, caerulein pancreatitis): 50 ± 4.4 mg/dL
fat necrosis (gross appearance) ([5]; compared between 767 and orlistat treated animals): much more extensive fat necrosis
